{"source": "PubChem BioAssay AID485294", "about": "(National Center for Advancing Translational Sciences (NCATS), 2010)", "note": "In all, about 370,000 compounds went through this assay and about 150 (0.041%) were called active. Inconclusive means that the source gave no clear call. Such entries were picked first, then a sample of the others. Calls come from the whole dose curve; as a rule, active = well fitted inhibition curve with a large enough effect; inconclusive = small, poorly fitted or top-dose-only effect; inactive = flat fitted curve, though single readings scatter. No potency is given beside an inconclusive call; the fits are too rough. Potency is the fitted concentration of half-maximal effect; tags give direction and shape of the fitted curve.", "data": [{"biological_target": "Beta-lactamase (Escherichia coli (strain K12)) (UniProt P00811)", "sequence (P00811 whole entry, looked up)": "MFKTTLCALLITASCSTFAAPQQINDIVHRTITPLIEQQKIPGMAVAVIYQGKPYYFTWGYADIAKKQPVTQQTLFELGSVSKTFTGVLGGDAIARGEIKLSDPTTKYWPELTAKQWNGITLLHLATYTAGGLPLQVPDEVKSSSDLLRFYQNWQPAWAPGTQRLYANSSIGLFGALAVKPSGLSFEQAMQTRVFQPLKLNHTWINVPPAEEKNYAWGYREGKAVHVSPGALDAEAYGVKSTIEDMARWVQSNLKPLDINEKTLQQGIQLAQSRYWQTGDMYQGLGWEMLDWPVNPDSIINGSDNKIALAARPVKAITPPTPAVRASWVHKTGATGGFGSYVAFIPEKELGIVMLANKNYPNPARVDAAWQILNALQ", "test": "qHTS Inhibitors of AmpC Beta-Lactamase (assay with detergent); note: nearly all actives have a fitted effect of over 25% in size", "conditions": "AmpC hydrolysis of nitrocefin, absorbance 480 nm, 0.01% Triton; series mostly up to 114 µM", "summary_of_the_method": "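20 mM phosphate pH 7.0 + 0.01% (detergent screen) or 0.0001% Triton X-100; 5.3 nM AmpC reagent; cpd preinc 15 min RT; nitrocefin (800 uM stock) to start; A480 q20 s × 4 min; Activity was normalised to no-enzyme and no-compound control wells.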", "values": [{"smiles": "Cc1ccc(C(C(=O)NC2CCCCC2)N2CCN(C(=O)c3ccco3)CC2)cc1", "note": "(centres undefined)", "Potency": "inactive"}, {"smiles": "O=C(O)CC1CCC(=C(Cl)Cl)C1", "note": "(centres undefined)", "Potency": "inconclusive [inhibitor, full curve, poor fit]"}, {"smiles": "CCc1c(C(=O)NN2C(=O)C3C4CCC(O4)C3C2=O)csc1C", "note": "(centres undefined)", "Potency": "inconclusive [inhibitor, partial curve]"}, {"smiles": "FC(F)(F)c1cccc(N2Cc3ccccc3C2)c1", "Potency": "inactive"}, {"smiles": "CCOC(=O)c1cn2nc(-c3ccc(OCC)cc3)cc2nc1C1CCN(C(=O)OC(C)(C)C)CC1", "Potency": "inconclusive [inhibitor, partial curve, poor fit]"}, {"smiles": "COc1cccc(N2CC(O)=C(c3ccccc3)C2=N)c1", "Potency": "inactive"}, {"smiles": "O=c1c(Sc2ccccc2)c(C(F)(F)F)[nH]n1-c1ccccc1", "Potency": "inactive"}, {"smiles": "CCOc1cc(N2CCOCC2)c(OCC)cc1NS(=O)(=O)c1ccc(Cl)s1", "Potency": "inconclusive [inhibitor, single point]"}, {"smiles": "CC1NC2(C(=O)N(Cc3ccccc3)c3ccccc32)C2C(=O)N(c3ccccc3)C(=O)C12", "note": "(centres undefined)", "Potency": "inconclusive [inhibitor, full curve, poor fit]"}, {"smiles": "CCOc1ccc(C(=O)NC(=S)Nc2ccccn2)cc1[N+](=O)[O-]", "Potency": "inactive"}, {"smiles": "COC(=O)C1C(=O)CC(C)(O)C(C(=O)OC)C1c1ccccc1F", "note": "(centres undefined)", "Potency": "inconclusive [inhibitor, full curve, poor fit]"}, {"smiles": "CCN(Cc1ccccc1)S(=O)(=O)c1c(C(=O)N2CCCC2)c(C)n(C)c1C", "Potency": "inconclusive [inhibitor, partial curve, poor fit]"}, {"smiles": "COc1ccc(OCc2ccc(-c3nc(C#N)c(N4CCC(C(N)=O)CC4)o3)o2)cc1", "Potency": "inactive"}, {"smiles": "O=c1oc2ccccc2c(Nc2ccccc2O)c1[N+](=O)[O-]", "Potency": "inactive"}, {"smiles": "O=C(NCc1ccc2c(c1)OCO2)Nc1ccc(Cl)cc1", "Potency": "inactive"}, {"smiles": "CCCCSc1nnc2n(CCc3ccccc3)c(=O)c3c4c(sc3n12)COC(C)(C)C4", "Potency": "inconclusive [inhibitor, full curve, poor fit]"}, {"smiles": "Brc1ccc2ncc(Br)cc2c1", "Potency": "inconclusive [inhibitor, partial curve, poor fit]"}, {"smiles": "CCOC(=O)c1cnn(-c2cc(C)cc(C)c2)c1N", "Potency": "inconclusive [inhibitor, full curve, poor fit]"}, {"smiles": "COc1ccc(C2c3c(n(C)c4ccccc34)C(=O)N2CC(=O)Nc2ccccc2Cl)cc1", "note": "(centres undefined)", "Potency": "inactive"}, {"smiles": "CNC(=O)c1ccc(NC(=O)Nc2ccccc2)cc1", "Potency": "inactive"}, {"smiles": "Cc1nnc(Sc2cc(NCCO)c([N+](=O)[O-])c3nonc23)s1", "Potency": "inconclusive [inhibitor, partial curve]"}, {"smiles": "c1ccc(N/N=C2\\CCCc3ccccc32)nc1", "Potency": "inactive"}, {"smiles": "Cc1cc(C)n(CCOC(=O)C2C(C=C(Cl)Cl)C2(C)C)n1", "note": "(centres undefined)", "Potency": "inconclusive [inhibitor, full curve, poor fit]"}, {"smiles": "O=C(COC(=O)c1ccc(O)cc1)Nc1ccc(N2CCCCC2)cc1", "Potency": "inconclusive [inhibitor, full curve, poor fit]"}, {"smiles": "Cc1cc(S(=O)(=O)N2CCCc3ccccc32)ccc1-n1cnnn1", "Potency": "inconclusive [inhibitor, single point]"}, {"smiles": "CCOC(=O)C(=O)Nc1ccc([N+](=O)[O-])cc1OC", "Potency": "inactive"}, {"smiles": "Cc1nc([N+](=O)[O-])c(Sc2nc3ccccc3n2C)n1Cc1ccccc1", "Potency": "inactive"}, {"smiles": "COc1cc(OC)cc(C(=O)NCC(=O)N2CCN(c3ccc(O)cc3)CC2)c1", "Potency": "inconclusive [inhibitor, partial curve]"}, {"smiles": "COc1cc(NC(=O)Cn2c(=O)n(Cc3ccccc3Cl)c(=O)c3cc(OC)c(OC)cc32)cc(OC)c1", "Potency": "inactive"}, {"smiles": "COc1ccc(-c2cc(C3CCN(c4ccc(C(C)=O)cc4[N+](=O)[O-])CC3)[nH]n2)cc1", "Potency": "inactive"}, {"smiles": "O=C(NC1CCCCC1)C(c1ccc(F)cc1)N(Cc1ccco1)C(=O)CN1C(=O)c2ccccc2S1(=O)=O", "note": "(centres undefined)", "Potency": "inconclusive [inhibitor, full curve]"}, {"smiles": "COC(=O)c1ccc(NC(=O)CSc2nnc(CNc3ccc(F)cc3)n2C)cc1", "Potency": "inconclusive [inhibitor, full curve, poor fit]"}, {"smiles": "CC(=O)Nc1ccc(SC[C@H](CC(C)C)N2CCN(CCc3ccccc3)CCC2=O)cc1", "Potency": "inactive"}, {"smiles": "CC[n+]1c(C)sc2cc(C)ccc21", "Potency": "inconclusive [inhibitor, partial curve]"}, {"smiles": "O=C(NCCc1ccc(F)cc1)N[C@@H](Cc1ccccc1)C(=O)O", "Potency": "inconclusive [inhibitor, partial curve, poor fit]"}, {"smiles": "CCOC(=O)C1CCN(C(=O)CC2(CC(=O)O)CCCC2)CC1", "Potency": "inconclusive [inhibitor, partial curve]"}, {"smiles": "COc1ccc(NC(=O)CSc2nnc(-c3ccccc3)n2Cc2ccco2)cc1OC", "Potency": "inconclusive [inhibitor, full curve, poor fit]"}, {"smiles": "C(=C\\c1cccc2ccccc12)/c1nnc(-c2cccs2)o1", "Potency": "inconclusive [inhibitor, partial curve]"}, {"smiles": "CC(C)(C)c1ccc(NC(=O)COC(=O)c2ccc(NS(=O)(=O)c3ccc(F)c(F)c3)cc2)cc1", "Potency": "inconclusive [inhibitor, partial curve]"}, {"smiles": "COC(=O)N/N=C/c1cc(OC)c(O)c([N+](=O)[O-])c1", "Potency": "inconclusive [inhibitor, partial curve]"}, {"smiles": "Cc1ccc(NC(=O)COc2coc(CN3CCc4ccccc4C3)cc2=O)c(C)c1", "Potency": "inconclusive [inhibitor, full curve, poor fit]"}, {"smiles": "Cc1ccc(C)c(NC(=O)CSc2ncc3c(n2)-c2ccccc2N(Cc2ccccc2C)S3(=O)=O)c1", "Potency": "inactive"}, {"smiles": "Cc1cc(C)cc(N(C(=O)c2csnn2)C(C(=O)NC2CCCCC2)c2ccccn2)c1", "note": "(centres undefined)", "Potency": "inactive"}, {"smiles": "COC(=O)c1ccccc1NC(=O)Cn1nc2n(C)c3ccccc3n2c(=O)c1=O", "Potency": "inconclusive [inhibitor, partial curve, poor fit]"}]}]}
